Measured values taken from PubChem BioAssay AID588449 (Broad Institute, 2011).
Not every entry of the source has a single result; some have several. They are shown here; other results are not. There may be further records. The values listed for one entry are repeats across runs, samples, wells, individuals or studies. A tag in brackets gives the origin of a value. The letters are not those of the source and start again with each entry.

Molecular target: Dual specificity tyrosine-phosphorylation-regulated kinase 1A (Rattus norvegicus) (UniProt Q63470)
Test: inhibition of rat Dyrk1A phosphotransfer – biochemical, cherry-pick, plate reader, 2124-03, dose response (AID 588449)
Conditions: recombinant Dyrk1A, ADP-Glo luminescence, NFATc1 peptide

AC50: 30.1 nM [sample A] and 1.3 µM [sample B]
Structure (SMILES): CCOC(=O)c1ccc(-c2ccc3ncnc(NCc4ccc(C)o4)c3c2)o1
